This is one part of the list.

For experiment [1], the system named is HSkMC (human skeletal muscle cells). In words: cytotoxicity call (relative viability < 0.9). Conditions: 10 µM.
For experiment [2], the system named is HepG2. The experiment is described as follows: cytotoxicity call (relative viability < 0.9). The following applies: 10 µM.
For experiment [3], the system named is S. aureus RN4220. The experiment is described as follows: growth inhibition call (relative growth <= 0.2). Conditions: 50 µM.

In the case of `CCOC(=O)CSc1nnc2c3sc4nc(N5CCOCC5)c5c(c4c3ncn12)CC(C)(C)OC5`, the cytotoxicity call in experiment [1] is “inactive”. For the same compound, the cytotoxicity call in experiment [2] was “active”. In addition, in experiment [3], the growth inhibition call was “inactive”.

Turning to `Nc1ncc(O)cn1`, the cytotoxicity call in experiment [1] and in experiment [2] was “inactive” throughout. Moreover, the growth inhibition call in experiment [3] is “inactive”.

Take `Cc1cc(C(=O)Nc2cccc3c2O[C@H](CN(C)C(=O)Nc2c(C)noc2C)[C@H](C)CN([C@@H](C)CO)C3=O)n(C)n1`: the cytotoxicity call in experiment [1] and in experiment [2] was “inactive” each time. In addition, the growth inhibition call in experiment [3] was “inactive”.

Regarding `COc1cccc(-c2ccc3c(c2)O[C@@H](CN(C)C(=O)C2CC2)[C@@H](C)CN([C@@H](C)CO)S3(=O)=O)c1`, the cytotoxicity call in experiment [1] and in experiment [2] was “inactive” in each case. The growth inhibition call in experiment [3] was “inactive”.

Take `CN1CCN(CC(=O)N2c3ccccc3C(=O)Nc3cccnc32)CC1.Cl.Cl`: the cytotoxicity call in experiment [1] and in experiment [2] was “inactive” in each case. Moreover, the growth inhibition call in experiment [3] was “inactive”.

Take `O=C(C[C@H]1CC[C@H]2[C@@H](COC[C@@H](O)CN2S(=O)(=O)c2ccc(F)cc2)O1)N1CCc2ccccc2C1`: the cytotoxicity call in experiment [1] and in experiment [2] was “inactive” each time. Besides, the growth inhibition call in experiment [3] was “inactive”.

As to `COc1ccc(NC(=O)Nc2cccc3c2O[C@@H](CN(C)CC2CCCCC2)[C@H](C)CN([C@@H](C)CO)C3=O)cc1`, the cytotoxicity call in experiment [1] and in experiment [2] was “inactive” throughout. Besides, in experiment [3], the growth inhibition call was “inactive”.

For the compound `C[C@@H]1CCCCO[C@H](CN(C)Cc2ccccc2)[C@@H](C)CN([C@H](C)CO)C(=O)c2cc(NS(=O)(=O)c3cccs3)ccc2O1`, the cytotoxicity call in experiment [1] and in experiment [2] was “inactive” in each case. The growth inhibition call in experiment [3] is “inactive”.

Take `CC1=CC2=NC(=O)C[C@](C)(C(=O)O)N2C=C1`: the cytotoxicity call in experiment [1] and in experiment [2] was “inactive” in each case. Also, the growth inhibition call in experiment [3] is “inactive”.

Regarding `C[C@H]1CN([C@@H](C)CO)C(=O)Cc2cc(NC(=O)Nc3ccccc3)ccc2O[C@@H]1CN(C)Cc1ccc(Oc2ccccc2)cc1`, the cytotoxicity call in experiment [1] and in experiment [2] was “active” throughout. Also, the growth inhibition call in experiment [3] is “inactive”.

`COCC(=O)NCc1cc(=O)n2c(n1)CN(c1ncccn1)CCC2`: the cytotoxicity call in experiment [1] and in experiment [2] was “inactive” in each case. For the same compound, in experiment [3], the growth inhibition call is “inactive”.

For the compound `C[C@H]1CN([C@@H](C)CO)C(=O)c2cc(C#CC3(O)CCCC3)cnc2O[C@H]1CN(C)C(=O)C1CCOCC1`, the cytotoxicity call in experiment [1] and in experiment [2] was “inactive” in each case. The growth inhibition call in experiment [3] is “inactive”.

Regarding `C[C@H](CO)N1C[C@H](C)[C@@H](CN(C)Cc2ccc3c(c2)OCO3)OCCCC[C@H](C)Oc2ccc(NS(=O)(=O)c3ccc(F)cc3)cc2C1=O`, the cytotoxicity call in experiment [1] and in experiment [2] was “inactive” in each case. The growth inhibition call in experiment [3] is “inactive”.

On to `Cc1noc(C)c1S(=O)(=O)Nc1ccc2c(c1)C(=O)N([C@@H](C)CO)C[C@H](C)[C@H](CN(C)Cc1ccc(C(F)(F)F)cc1)OCCCC[C@H](C)O2`, for which the cytotoxicity call in experiment [1] and in experiment [2] was “inactive” throughout. For the same compound, the growth inhibition call in experiment [3] was “inactive”.

For the compound `COc1cccc(NC(=O)N[C@H]2CC[C@H](CC(=O)N3CCN(C)CC3)O[C@@H]2CO)c1`, the cytotoxicity call in experiment [1] and in experiment [2] was “inactive” each time. For the same compound, the growth inhibition call in experiment [3] was “inactive”.

For `CC(C)CC#Cc1ccc2c(c1)O[C@@H](CN(C)C(=O)c1ccncc1)[C@@H](C)CN([C@@H](C)CO)S2(=O)=O`, the cytotoxicity call in experiment [1] and in experiment [2] was “inactive” in each case. In addition, the growth inhibition call in experiment [3] was “inactive”.

As to `C[C@H]1CN([C@@H](C)CO)C(=O)c2cc(-c3cncnc3)cnc2O[C@@H]1CN(C)C(=O)Nc1ccc2c(c1)OCO2`, the cytotoxicity call in experiment [1] and in experiment [2] was “inactive” each time. Also, the growth inhibition call in experiment [3] is “inactive”.

Consider `C[C@H](CO)N1C[C@H](C)[C@@H](CN(C)C(=O)Nc2ccc(C(F)(F)F)cc2)Oc2c(NC(=O)NC3CCCCC3)cccc2C1=O`, for which the cytotoxicity call in experiment [1] and in experiment [2] was “inactive” throughout. Also, the growth inhibition call in experiment [3] was “inactive”.

As to `C[C@@H]1CN([C@H](C)CO)C(=O)c2cccc(NC(=O)Nc3ccc(C(F)(F)F)cc3)c2O[C@H]1CN(C)Cc1ccc2c(c1)OCO2`, the cytotoxicity call in experiment [1] and in experiment [2] was “inactive” throughout. The growth inhibition call in experiment [3] was “inactive”.

In the case of `C[C@@H]1CCCCO[C@H](CN(C)C(=O)Nc2ccc3c(c2)OCO3)[C@H](C)CN([C@H](C)CO)C(=O)c2cc(NC(=O)CCC(F)(F)F)ccc2O1`, the cytotoxicity call in experiment [1] and in experiment [2] was “inactive” each time. Also, the growth inhibition call in experiment [3] was “inactive”.

For the compound `CC(C)NCC(O)COc1cccc2[nH]ccc12` (configuration not stated), the cytotoxicity call in experiment [1] and in experiment [2] was “inactive” throughout. Further, the growth inhibition call in experiment [3] is “inactive”.

In the case of `CN(C)CCN1C[C@@H]2CN(C(=O)c3cnc[nH]3)C[C@H]2C1=O`, the cytotoxicity call in experiment [1] and in experiment [2] was “inactive” each time. Besides, the growth inhibition call in experiment [3] is “inactive”.

Turning to `O=C(C[C@H]1CC[C@@H]2[C@H](COC[C@H](O)CN2C(=O)c2ccncc2)O1)NC1CCC1`, the cytotoxicity call in experiment [1] and in experiment [2] was “inactive” each time. For the same compound, the growth inhibition call in experiment [3] was “inactive”.

Consider `COc1ccc(S(=O)(=O)N(C)C[C@@H]2OCCCC[C@H](C)Oc3ccc(NC(=O)Nc4ccc5c(c4)OCO5)cc3C(=O)N([C@H](C)CO)C[C@H]2C)cc1`, for which the cytotoxicity call in experiment [1] and in experiment [2] was “inactive” throughout. The growth inhibition call in experiment [3] is “inactive”.

Take `Cc1ccc(-c2ccc(OC(=O)c3ccccc3F)cc2)cc1`: the cytotoxicity call in experiment [1] and in experiment [2] was “inactive” each time. The growth inhibition call in experiment [3] was “inactive”.

In the case of `COc1ccc(S(=O)(=O)Nc2ccc3c(c2)C(=O)N([C@@H](C)CO)C[C@@H](C)[C@@H](CN(C)Cc2ccc(Cl)c(Cl)c2)OCCCC[C@@H](C)O3)cc1`, the cytotoxicity call in experiment [1] and in experiment [2] was “active” in each case. For the same compound, the growth inhibition call in experiment [3] was “inactive”.

Take `N#CNC1=NCN(CCN2CCOCC2)CN1`: the cytotoxicity call in experiment [1] and in experiment [2] was “inactive” throughout. For the same compound, the growth inhibition call in experiment [3] is “inactive”.

With `C[C@@H]1CN([C@H](C)CO)S(=O)(=O)c2ccc(C#Cc3ccncc3)cc2O[C@@H]1CN(C)C(=O)C1CCCCC1`, the cytotoxicity call in experiment [1] was “inactive”. In addition, the cytotoxicity call in experiment [2] is “active”. In experiment [3], the growth inhibition call was “inactive”.

Regarding `Cn1cnc(CCNC(=O)C[C@H]2CC[C@@H]3[C@H](COC[C@H](O)CN3C(=O)C3CC3)O2)c1`, the cytotoxicity call in experiment [1] and in experiment [2] was “inactive” each time. Further, the growth inhibition call in experiment [3] was “inactive”.
